# This is one part of the list.
# B1: Threefoil (Haloarcula marismortui) (protein)
# chain: GSSHHHHHHHHHHSSGLVPRGSHMGDGYYKLVARHSGKALDVENASTSDGANVIQYSYSGGDNQQWRLVDLGDGYYKLVARHSGKALDVENASTSDGANVIQYSYSGGDNQQWRLVDLGDGYYKLVARHSGKALDVENASTSDGANVIQYSYSGGDNQQWRLVDL
# Experiments:
# Assay in all cases: glycan array binding signal (z-score within array); higher = stronger binding
# Details in all cases: glycan notation: IUPAC condensed, linker removed
# [1] = target: Gal3S(b1-3)[Fuc(a1-4)]GlcNAc
# In short: (§1)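 Glycan array data came from 3228 arrays in the Consortium for Functional Glycomics database, and only arrays with an available protein sequence were kept. Glycan names were put into IUPAC-condensed notation, and columns mapping to the same glycan were averaged. The binding signal is a within-array Z-score, averaged across arrays of one protein sequence run at different concentrations or buffers and across linkers. A negative Z-score can be read as non-binding.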
# [2] = target: Gal3S(b1-4)Glc
# In short: as §1
# [3] = target: Gal3S(b1-4)Glc6S
# In short: as §1
# [4] = target: Gal3S(b1-4)GlcNAc
# In short: as §1
# [5] = target: Gal3S(b1-4)[Fuc(a1-3)]Glc6S
# In short: as §1
# [6] = target: Gal3S(b1-4)[Fuc(a1-3)]GlcNAc
# In short: as §1
# [7] = target: Gal3S(b1-4)[Fuc(a1-3)]GlcNAc6S
# In short: as §1
# [8] = target: Gal3S4S(b1-4)GlcNAc
# In short: as §1
# [9] = target: Gal3S6S(b1-4)GlcNAc
# In short: as §1
# [10] = target: Gal3S6S(b1-4)GlcNAc6S
# In short: as §1
# [11] = target: Gal4S(b1-4)GlcNAc
# In short: as §1
# [12] = target: Gal4S6S(b1-4)GlcNAc
# In short: as §1
# [13] = target: Gal6P(b1-4)GlcNAc
# In short: as §1
# [14] = target: Gal6S(b1-3)GlcNAc
# In short: as §1
# [15] = target: Gal6S(b1-3)GlcNAc6S
# In short: as §1
# [16] = target: Gal6S(b1-4)Glc
# In short: as §1
# [17] = target: Gal6S(b1-4)Glc6S
# In short: as §1
# [18] = target: Gal6S(b1-4)GlcNAc
# In short: as §1
# [19] = target: Gal6S(b1-4)GlcNAc6S
# In short: as §1
# [20] = target: GalNAc(a1-3)Gal
# In short: as §1
# [21] = target: GalNAc(a1-3)GalNAc
# In short: as §1
# [22] = target: GalNAc(a1-3)GalNAc(a1-3)Gal(a1-4)Gal(b1-4)GlcNAc
# In short: as §1
# [23] = target: GalNAc(a1-3)GalNAc(b1-3)Gal(a1-4)Gal(b1-4)Glc
# In short: as §1
# [24] = target: GalNAc(b1-3)Gal
# In short: as §1
# [25] = target: GalNAc(b1-3)Gal(a1-4)Gal(b1-4)GlcNAc
# In short: as §1
# [26] = target: GalNAc(b1-3)Gal(a1-4)Gal(b1-4)GlcNAc(b1-3)Gal(b1-4)Glc
# In short: as §1
# [27] = target: GalNAc(b1-3)Gal(a1-6)Gal(b1-4)Glc
# In short: as §1
# [28] = target: GalNAc(b1-3)GalNAc
# In short: as §1
# [29] = target: GalNAc(b1-3)GlcNAc
# In short: as §1
# [30] = target: GalNAc(b1-4)Gal(b1-4)Glc
# In short: as §1
# [31] = target: GalNAc(b1-4)GlcNAc
# In short: as §1
# [32] = target: GalNAc(b1-4)GlcNAc(b1-2)Man
# In short: as §1
# [33] = target: GalNAc(b1-4)GlcNAc(b1-2)Man(a1-3)[GalNAc(b1-4)GlcNAc(b1-2)Man(a1-6)]Man(b1-4)GlcNAc(b1-4)GlcNAc
# In short: as §1
# [34] = target: GalNAc(b1-4)GlcNAc(b1-3)GalNAc(b1-4)GlcNAc
# In short: as §1
# [35] = target: GalNAc(b1-4)GlcNAc6S
# In short: as §1
# [36] = target: GalNAc(b1-6)GalNAc
# In short: as §1
# [37] = target: GalNAc3S(b1-4)GlcNAc
# In short: as §1
# [38] = target: GalNAc3S(b1-4)GlcNAc3S
# In short: as §1
# [39] = target: GalNAc3S(b1-4)[Fuc(a1-3)]GlcNAc
# In short: as §1
# [40] = target: GalNAc4S6S(b1-4)GlcNAc
# In short: as §1
# [41] = target: GalNAc6S(b1-4)GlcNAc
# In short: as §1
# [42] = target: Glc(a1-4)Glc
# In short: as §1
# [43] = target: Glc(a1-4)Glc(a1-4)Glc(a1-4)Glc
# In short: as §1
# [44] = target: Glc(a1-6)Glc(a1-6)Glc
# In short: as §1
# [45] = target: Glc(a1-6)Glc(a1-6)Glc(a1-6)Glc
# In short: as §1
binder,measurement,setting,value
B1,glycan array binding signal (z-score),[1],-0.175
same,glycan array binding signal (z-score),[2],-0.19
same,glycan array binding signal (z-score),[3],-0.215
same,glycan array binding signal (z-score),[4],-0.158
same,glycan array binding signal (z-score),[5],0.052
same,glycan array binding signal (z-score),[6],-0.002
same,glycan array binding signal (z-score),[7],-0.038
same,glycan array binding signal (z-score),[8],-0.214
same,glycan array binding signal (z-score),[9],-0.173
same,glycan array binding signal (z-score),[10],-0.221
same,glycan array binding signal (z-score),[11],-0.155
same,glycan array binding signal (z-score),[12],-0.227
same,glycan array binding signal (z-score),[13],-0.211
same,glycan array binding signal (z-score),[14],-0.211
same,glycan array binding signal (z-score),[15],-0.298
same,glycan array binding signal (z-score),[16],-0.116
same,glycan array binding signal (z-score),[17],-0.055
same,glycan array binding signal (z-score),[18],-0.262
same,glycan array binding signal (z-score),[19],-0.194
same,glycan array binding signal (z-score),[20],-0.111
same,glycan array binding signal (z-score),[21],-0.161
same,glycan array binding signal (z-score),[22],-0.227
same,glycan array binding signal (z-score),[23],-0.187
same,glycan array binding signal (z-score),[24],-0.265
same,glycan array binding signal (z-score),[25],-0.056
same,glycan array binding signal (z-score),[26],-0.128
same,glycan array binding signal (z-score),[27],-0.171
same,glycan array binding signal (z-score),[28],-0.128
same,glycan array binding signal (z-score),[29],-0.057
same,glycan array binding signal (z-score),[30],-0.153
same,glycan array binding signal (z-score),[31],-0.003
same,glycan array binding signal (z-score),[32],-0.238
same,glycan array binding signal (z-score),[33],-0.172
same,glycan array binding signal (z-score),[34],0
same,glycan array binding signal (z-score),[35],-0.221
same,glycan array binding signal (z-score),[36],-0.12
same,glycan array binding signal (z-score),[37],-0.211
same,glycan array binding signal (z-score),[38],-0.334
same,glycan array binding signal (z-score),[39],-0.193
same,glycan array binding signal (z-score),[40],-0.205
same,glycan array binding signal (z-score),[41],-0.341
same,glycan array binding signal (z-score),[42],-0.199
same,glycan array binding signal (z-score),[43],-0.221
same,glycan array binding signal (z-score),[44],-0.239
same,glycan array binding signal (z-score),[45],-0.157

# — the supplement of paper PMC8728848
